Like-named read-outs stand apart in the source and are kept apart here. These are yes or no findings as the source states them, for the method shown. In cells and extracts the contact can be indirect. Some results given as binding are weak or reduced against the parent protein; the word gives no strength. For part of these data: Sequences can lack the tags named with a protein. Each block holds one molecule with its values, some of them ahead of it.
What was measured:
Flag-TSPAN18 [1] = biological target: T1, Flag-TSPAN18 (UniProt Q96SJ8); assay: co-IP; HEK-293T cells co-transfected with tagged plasmids; anti-Flag, anti-Myc or anti-His antibody, Western blot
T1 sequence: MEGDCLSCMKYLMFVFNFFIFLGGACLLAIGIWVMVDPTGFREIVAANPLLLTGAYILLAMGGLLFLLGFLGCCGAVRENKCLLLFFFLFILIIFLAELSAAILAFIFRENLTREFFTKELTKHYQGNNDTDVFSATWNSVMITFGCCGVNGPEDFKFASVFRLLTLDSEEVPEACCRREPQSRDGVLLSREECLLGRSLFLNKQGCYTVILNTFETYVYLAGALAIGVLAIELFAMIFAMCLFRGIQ

The chains behind the UniProt entries cited, without tags or fusion partners. Residues count along the entry.
UniProt Q13049: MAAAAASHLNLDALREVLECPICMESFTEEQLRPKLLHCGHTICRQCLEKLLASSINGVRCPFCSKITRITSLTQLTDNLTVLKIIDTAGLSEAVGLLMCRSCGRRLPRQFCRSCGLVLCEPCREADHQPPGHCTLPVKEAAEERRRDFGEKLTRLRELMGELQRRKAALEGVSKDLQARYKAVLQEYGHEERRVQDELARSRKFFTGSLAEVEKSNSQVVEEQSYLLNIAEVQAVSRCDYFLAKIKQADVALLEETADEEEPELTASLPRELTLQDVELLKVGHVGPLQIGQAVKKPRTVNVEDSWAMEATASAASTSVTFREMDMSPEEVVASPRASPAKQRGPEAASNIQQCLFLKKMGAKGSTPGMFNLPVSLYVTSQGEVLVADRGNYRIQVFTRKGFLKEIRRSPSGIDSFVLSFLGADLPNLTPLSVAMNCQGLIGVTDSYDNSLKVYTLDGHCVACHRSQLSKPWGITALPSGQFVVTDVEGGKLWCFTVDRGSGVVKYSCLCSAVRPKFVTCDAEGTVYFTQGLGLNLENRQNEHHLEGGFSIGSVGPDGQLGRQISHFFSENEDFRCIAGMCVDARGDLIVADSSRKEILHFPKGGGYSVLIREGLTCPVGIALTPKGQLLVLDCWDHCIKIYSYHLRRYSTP
UniProt Q13586, residues 23-685: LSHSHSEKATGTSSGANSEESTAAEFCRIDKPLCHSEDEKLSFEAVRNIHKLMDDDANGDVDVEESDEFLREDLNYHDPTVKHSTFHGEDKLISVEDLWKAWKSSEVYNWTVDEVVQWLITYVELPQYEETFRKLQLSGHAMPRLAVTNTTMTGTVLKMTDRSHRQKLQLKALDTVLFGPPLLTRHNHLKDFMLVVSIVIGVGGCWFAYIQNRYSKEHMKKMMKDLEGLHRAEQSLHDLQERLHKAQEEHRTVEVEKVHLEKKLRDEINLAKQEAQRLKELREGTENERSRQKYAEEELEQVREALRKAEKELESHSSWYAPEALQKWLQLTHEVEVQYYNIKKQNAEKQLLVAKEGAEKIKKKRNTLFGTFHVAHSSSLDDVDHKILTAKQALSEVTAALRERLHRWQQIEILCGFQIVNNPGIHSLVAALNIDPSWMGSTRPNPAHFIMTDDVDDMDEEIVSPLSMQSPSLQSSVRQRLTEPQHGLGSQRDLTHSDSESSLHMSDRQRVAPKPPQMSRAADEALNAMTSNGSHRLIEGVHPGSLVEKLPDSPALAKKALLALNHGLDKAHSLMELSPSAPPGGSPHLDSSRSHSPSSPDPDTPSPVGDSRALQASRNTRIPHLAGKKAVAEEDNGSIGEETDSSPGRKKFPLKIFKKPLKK

His-TRIM32 [2] = biological target: His-TRIM32 (UniProt Q13049); assay: as above
Flag-TSPAN18 [3] = biological target: T1, Flag-TSPAN18; assay: co-IP; DU145 cells transfected with tagged plasmids or stably overexpressing Flag-TSPAN18 (also with siRNA to STIM1 or Orai1); anti-Flag, anti-Myc or anti-His antibody, Western blot
His-TRIM32 [4] = biological target: His-TRIM32 (UniProt Q13049); assay: as above
[5] = biological target: stromal interaction molecule 1 (STIM1), endogenous (human (endogenous in DU145 and PC-3)) (UniProt Q13586); assay: co-IP; endogenous proteins in PCa cell lysates (DU145 and PC-3), anti-STIM1 or anti-TRIM32 antibody, 4 C overnight, magnetic beads, Western blot
Myc-STIM1 [6] = biological target: Myc-STIM1 (UniProt Q13586); assay: co-IP; HEK-293T cells co-transfected with tagged plasmids; anti-Flag, anti-Myc or anti-His antibody, Western blot
Myc-STIM1 [7] = biological target: Myc-STIM1 (UniProt Q13586); assay: co-IP; HEK-293T cells co-transfected for 48 h with Myc-STIM1, His-TRIM32 and Flag-TSPAN18, one of the last two in increasing amounts; precipitated with anti-STIM1 antibody
Myc-STIM1 [8] = biological target: Myc-STIM1 (UniProt Q13586); assay: co-IP; DU145 cells transfected with tagged plasmids or stably overexpressing Flag-TSPAN18 (also with siRNA to STIM1 or Orai1); anti-Flag, anti-Myc or anti-His antibody, Western blot
[9] = biological target: stromal interaction molecule 1 (STIM1), endogenous (human (endogenous in DU145 and PC-3)) (UniProt Q13586); assay: co-IP; endogenous proteins in PCa cell lysates (DU145 and PC-3), anti-STIM1 or anti-TRIM32 antibody, 4 C overnight, magnetic beads, Western blot; remark: listed apart in the source
Myc-STIM1 [10] = biological target: Myc-STIM1 (UniProt Q13586); assay: co-IP; DU145 cells transfected with tagged plasmids or stably overexpressing Flag-TSPAN18 (also with siRNA to STIM1 or Orai1); anti-Flag, anti-Myc or anti-His antibody, Western blot; remark: listed apart in the source
Myc-STIM1 [11] = biological target: Myc-STIM1 (UniProt Q13586); assay: co-IP; HEK-293T cells co-transfected with tagged plasmids; anti-Flag, anti-Myc or anti-His antibody, Western blot; remark: listed apart in the source

binding (Flag-TSPAN18 [1]): binds | binding (His-TRIM32 [2]): binds | binding (Flag-TSPAN18 [3]): binds | binding (His-TRIM32 [4]): binds
Molecule: Myc-STIM1 (from UniProt Q13586 23-685)

binding [5]: binds
Molecule: tripartite motif containing 32 (TRIM32), endogenous (from UniProt Q13049 1-653) (enzyme)

binding (Flag-TSPAN18 [3]): binds
Molecule: stromal interaction molecule 1 (STIM1), endogenous (from UniProt Q13586 23-685)

binding (Myc-STIM1 [6]): binds | binding (Myc-STIM1 [7]): binds | binding (Flag-TSPAN18 [3]): no binding | binding (Myc-STIM1 [8]): binds
Molecule: His-TRIM32 (from UniProt Q13049 1-653) (enzyme)

binding [9]: binds | binding (Myc-STIM1 [10]): binds
B1: tetraspanin 18 (TSPAN18), endogenous (protein, UniProt Q96SJ8 1-248)
chain: T1 sequence

binding (Myc-STIM1 [11]): binds | binding (Myc-STIM1 [7]): binds | binding (Myc-STIM1 [10]): binds
B2: Flag-TSPAN18 (protein, UniProt Q96SJ8 1-248)
chain: T1 sequence
